PubChem BioAssay AID485281 (National Center for Advancing Translational Sciences (NCATS), 2010)
Several values for one entry are separate records, joined by “and”; a condition that tells them apart may be missing. Equal values may be shown once. Out of some 350,000 compounds screened, about 260 (0.074%) were called active. Inconclusive means that the source gave no clear call. Such entries were picked first, then a sample of the others. Calls follow the shape of the dose curve; as a rule, active = well fitted inhibition curve with a large enough effect; inconclusive = small, poorly fitted or top-dose-only effect; inactive = no such curve, though single readings can be large or run the other way. A potency beside an inconclusive call is a rough fit, not a confirmed value.

target: Ferritin light chain (Equus caballus) (UniProt P02791); assay: qHTS Assay for Identification of Novel General Anesthetics; settings: apoferritin/1-aminoanthracene competitive binding, fluorescence; series mostly up to 77.5 µM; also: nearly all actives have a fitted effect of over 20% in size
Chain of UniProt P02791 (P02791 whole entry, looked up): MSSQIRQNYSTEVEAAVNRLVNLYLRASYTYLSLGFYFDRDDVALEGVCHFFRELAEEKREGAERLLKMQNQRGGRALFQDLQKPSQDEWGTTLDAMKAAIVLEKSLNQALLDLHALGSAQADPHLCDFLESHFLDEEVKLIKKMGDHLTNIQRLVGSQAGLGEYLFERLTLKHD
Outline: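 Apoferritin-based anesthetic binding model; compound displacement of fluorescent 1-AMA measured as endpoint fluorescence after 10 minutes at room temperature, scaled to free-ligand and complex controls.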
Potency is read from the fitted curve at half-maximal effect; tags tell the direction and shape of the fitted curve.

SMILES	Potency
N#Cc1cnc(SCCc2ccccc2)nc1N	inactive
CCC(CC)COC(=O)C(C#N)c1nc2ccccc2nc1N1CCN(CC)CC1 (stereo unspecified)	inconclusive: 28.2 µM [inhibitor, partial curve]
O=C(O)C1C2C=CC(C2)C1C(=O)NCc1ccco1 (stereo unspecified)	inconclusive: 31.6 µM [inhibitor, partial curve]
COc1ccc(N2C(=O)CSC2c2cccc(F)c2)c(OC)c1 (stereo unspecified)	inconclusive: 28.2 µM [inhibitor, partial curve]
Cc1ccc(CNC(=O)C2CCN(S(=O)(=O)c3cc(-c4noc(C)n4)ccc3C)CC2)cc1	inactive
Cn1c(=O)oc2cc(S(=O)(=O)Nc3ccccc3O)ccc21	inactive and inconclusive: 2.51 µM [inhibitor, partial curve]
O=C(CO/N=C/c1ccc(Cl)cc1Cl)NNC(=O)c1ccc(Cl)cc1Cl	inconclusive: 15.8 µM [inhibitor, partial curve, poor fit]
O=C(COc1ccccc1)Nc1ccc(S(=O)(=O)N2CCOCC2)cc1	inconclusive: 39.8 µM [inhibitor, partial curve]
CCC(C)(C)n1nnnc1C(C(C)C)N(CCN1CCOCC1)Cc1cc2cccc(C)c2[nH]c1=O (stereo unspecified)	inactive
CCCc1c(C)nn(-c2ncccc2[N+](=O)[O-])c1C	inconclusive: 31.6 µM [inhibitor, partial curve]
O=C(CC1CCOCC1)Nc1ccc(Cl)c(Cl)c1	inconclusive: 22.4 µM [inhibitor, partial curve]
CC(C)(C)/C=N/NC(=O)CNC(=O)c1ccc2c(c1)OCCO2	inconclusive: 35.5 µM [inhibitor, single point]
CC(CNC(=O)Cc1ccc(NC(=O)N2CCSc3ncccc32)cc1)c1ccccc1 (stereo unspecified)	inactive
Cc1cc(C(=O)CSc2nnc(NCc3ccccc3)s2)c(C)n1C	inconclusive: 17.8 µM [inhibitor, partial curve]
CCOC(=O)c1ccccc1N1C(=O)C2Sc3[nH]c(=O)sc3C(/C=C/c3ccccc3)C2C1=O (stereo unspecified)	inconclusive: 28.2 µM [inhibitor, partial curve]
C#CCOCCOCCOCCNc1nc(N2CCN(C(=O)Cn3cc(CC(C)O)nn3)CC2)nc(N2CCN(C(=O)[C@H](CCCCN)n3cc(CCC(=O)O)nn3)CC2)n1 (stereo partly specified)	inactive
O=C(CNC(=O)C1COc2ccccc2O1)N/N=C/c1ccc([N+](=O)[O-])cc1 (stereo unspecified)	inconclusive: 39.8 µM [inhibitor, partial curve]
COc1ccc(Cn2nnnc2CN2CCc3ccccc32)cc1	inconclusive: 22.4 µM [inhibitor, partial curve]
COc1cccc(C2CC3(CC(C)(C)NC(=S)N3)Oc3cc(O)ccc32)c1 (stereo unspecified)	inactive
CC(=O)c1c(N2CCN(Cc3ccccc3)CC2)[nH]c(-c2ccccc2)nc1=S	inconclusive: 39.8 µM [inhibitor, partial curve]
CCOc1ccc(OCc2ccc(C(=O)N/N=C(\C)c3ccccn3)cc2)cc1	inconclusive: 25.1 µM [inhibitor, single point]

SMILES	Potency
CCC(C)N(C(=O)COC(=O)c1cc([N+](=O)[O-])ccc1N)C1CCS(=O)(=O)C1 (stereo unspecified)	inconclusive: 28.2 µM [inhibitor, single point]
COC(=O)c1ccc(C(=O)N(Cc2ccccc2)c2ccccc2)cc1	inconclusive: 28.2 µM [inhibitor, partial curve]
COc1ccccc1-n1c(=O)c2c3c(sc2n(Cc2ccccc2F)c1=O)CN(C(C)=O)CC3	inconclusive: 14.1 µM [inhibitor, partial curve]
CC(=O)Nc1ccc(-c2nnc(SCC(=O)c3ccc4c(c3)Cc3ccccc3-4)n2C)cc1	inconclusive: 44.7 µM [inhibitor, single point]
O=C(CSc1nnnn1C1CCCCC1)Nc1nc2c(s1)CCCC2	inconclusive: 5.62 µM [inhibitor, partial curve]
Cc1cccc(C(=O)NC(=S)Nc2ccc(S(=O)(=O)N3CCN(C)CC3)cc2)c1	inconclusive: 28.2 µM [inhibitor, single point]
CSc1nc(N)c2ncn([C@@H]3O[C@H](COP(=O)(O)OP(=O)(O)OP(=O)(O)O)[C@@H](O)[C@H]3O)c2n1	inactive
CCOc1ccc(N(CC(=O)N/N=C/c2cc([N+](=O)[O-])ccc2Cl)S(C)(=O)=O)cc1	inconclusive: 20 µM [inhibitor, partial curve]
O=C(Cn1nc(-c2ccc(Cl)cc2)ccc1=O)NCCN1CCOCC1	inconclusive: 25.1 µM [inhibitor, partial curve]
CCCOc1ccc(C(=O)CCN2CCCCC2)cc1	inconclusive: 28.2 µM [inhibitor, single point]
FC(F)(F)C1=CC(c2ccc(Br)cc2)=NCCN1	inconclusive: 31.6 µM [inhibitor, single point]
CCOC(=O)C1CCN(C(=O)COC(=O)COc2ccc(Cl)cc2)CC1	inactive
Nc1cc2c(cc1C(=O)c1cccc(Br)c1)OCCO2	inconclusive: 28.2 µM [inhibitor, partial curve]
Cc1cccc(N2CC(C(=O)Nc3nnc(SCc4cccnc4)s3)CC2=O)c1 (stereo unspecified)	inconclusive: 35.5 µM [inhibitor, partial curve]
CN(Cc1ccccc1)C(=O)c1cc(-c2cccc(Cl)c2)on1	inconclusive: 11.2 µM [inhibitor, partial curve]
CC(=O)N1CCN=C1SCc1cccc(Cl)c1	inconclusive: 28.2 µM [inhibitor, single point]
Cc1cc(-c2ccc(N3CCOCC3)cc2)nc2ccccc12	inactive
O=C1CCCC/C1=N\Nc1ccc(C2CCCCC2)cc1	inconclusive: 50.1 µM [inhibitor, single point]
CC1=C(CC(=O)c2ccccc2)C(=O)c2ccccc2C1=O	inconclusive: 35.5 µM [inhibitor, partial curve]
CCN(CC)S(=O)(=O)c1cc(NC(=O)c2cc([N+](=O)[O-])ccc2N2CCOCC2)ccc1C	inconclusive: 28.2 µM [inhibitor, partial curve]
